The list shows a part of the results.
These sequences were tested on PfHDP1 homeodomain (GST-tagged) (assay: gcPBM binding intensity (ln(normalized median fluorescence intensity)); higher = stronger DNA binding).
Outline: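 In this array assay, P. falciparum DNA-binding domains with a GST tag, expressed in E. coli, were applied for 1 h to primer-extended double-stranded 36-bp intergenic genomic probes and negative controls on an Agilent 4 × 180k array. Bound protein was visualised with Alexa488 anti-GST antibody at 488 nm. Binding intensity is the highest Masliner-normalised natural-log median intensity across replicate spots of either probe orientation.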
With “TGTTAAATTATTTATCAGATTATTATTTGTAAATAA [CACACA_negctrl_site1535]” the “gcPBM binding intensity (ln)” value was 6.02. “TATATATATATATATACACACATATATATATTTTTC [CACACA_site3983]” was tested, and the “gcPBM binding intensity (ln)” value was 9.35. “AATACCTATGGAATTAATAATATGTGTACAGACACA [TGCATGCA_negctrl_site547]” was tested, and the “gcPBM binding intensity (ln)” value was 6.23. For “AACAATGGATTATTCACACATAAAAAAATTCACATT [CACACA_site5437]”, the “gcPBM binding intensity (ln)” value was 6.15. For “ATCATTATATTATGGTGTACCCATATATAATTATCA [XGTACX_site551]”, the “gcPBM binding intensity (ln)” value was 6.43. “AATTTAAAGAATTGTAGTACAATGAAATATATATAA [XGTACX_site7970]” was tested, and the “gcPBM binding intensity (ln)” value was 6.74. With “CATTAAACCGTGGGAGCACACACACCCACCCACCCA [CACACA_site8000]” the “gcPBM binding intensity (ln)” value was 6.91. With “AACATGCAAACATGCACACAGAAAAAAAAAATATAT [CACACA_site1565]” the “gcPBM binding intensity (ln)” value was 9.37. In the case of “TTACACATACATATGTGGGAAAATATTGCTACATAT [CACACA_negctrl_site463]”, the “gcPBM binding intensity (ln)” value was 6.76. For “GGAACTTAAAAAAAATGTACTTATAAAAAAGGAAAT [XGTACX_site8186]”, the “gcPBM binding intensity (ln)” value was 6.39. With “AAGAAAAGCATAGATGCACACATATATATATATATA [CACACA_site8675]” the “gcPBM binding intensity (ln)” value was 9.35. With “GCATAATATACTCTTACACACCATTTCTAAATACAT [CACACA_site4912]” the “gcPBM binding intensity (ln)” value was 7.22. In the case of AAGACAATATATGCAGTGCATATACATACATATATA, the “gcPBM binding intensity (ln)” value was 8.24. In the case of “AAAAAAAAAAAAAAAAGTACGTATTTTTTTTAAAAT [XGTACX_site2654]”, the “gcPBM binding intensity (ln)” value was 6.48. For “ATATATATATATATATGTACATATTTTATTTGAAAT [XGTACX_site7411]”, the “gcPBM binding intensity (ln)” value was 9.26. “ACAGGAAAAAACAATTGTACATGTATATATATATAT [XGTACX_site7677]” was tested, and the “gcPBM binding intensity (ln)” value was 9.16. For “ATAATATCATCAAACGCACACATACATAAATATATT [CACACA_site5230]”, the “gcPBM binding intensity (ln)” value was 7.49. In the case of “ACATATTATATGAATACACACAAAAACTTATCGGTA [CACACA_site3439]”, the “gcPBM binding intensity (ln)” value was 6.57. In the case of “TATTTTTATAATATATGTACATATATATATATATTA [XGTACX_site5343]”, the “gcPBM binding intensity (ln)” value was 6.49. For “TTTTTTTTTTTTTTTTGTACGTAAAAAAATATATAC [XGTACX_site1290]”, the “gcPBM binding intensity (ln)” value was 6.46. In the case of “TTGTTATATTACAGTAGTACATTTAAAATCTACTAC [XGTACX_site2620]”, the “gcPBM binding intensity (ln)” value was 6.61. For “ATTTTTATTTACAACCCCAAAAAGGAAAAACATAAA [CACACA_negctrl_site1169]”, the “gcPBM binding intensity (ln)” value was 6.62. “TTACATTATATACATACACACCCACCCACAAAAAAA [CACACA_site8187]” was tested, and the “gcPBM binding intensity (ln)” value was 9.25. In the case of “AATATTTATACTATAACACACATACAGACAAAAAAA [CACACA_site6396]”, the “gcPBM binding intensity (ln)” value was 6.91. For “TATTTTCTTTTTCTTGTACACACATAATATGGATGA [CACACA_site8168]”, the “gcPBM binding intensity (ln)” value was 6.96. In the case of “TATTTACATTTATGTGCACACATTCCATTTGAAAGT [CACACA_site1954]”, the “gcPBM binding intensity (ln)” value was 11. With “CGGACATACATAGGAACATGCAAAATTTTTTATTTT [TGCATGCA_site575]” the “gcPBM binding intensity (ln)” value was 6.38. “AATAGAAAAAAAAAATGTACACATATAAAAGCATAT [XGTACX_site6306]” was tested, and the “gcPBM binding intensity (ln)” value was 6.84. With “CAAAATAAAAATTAATGTACATAAAAAATGAATATA [XGTACX_site1085]” the “gcPBM binding intensity (ln)” value was 6.68. For “ATAAAATTGTATAACTGTACATATATATATATATAT [XGTACX_site5596]”, the “gcPBM binding intensity (ln)” value was 9.39. For “TCTTTGAATTTTTTAACACACACATGGGTGGATATA [CACACA_site8474]”, the “gcPBM binding intensity (ln)” value was 6.36. In the case of “TTGAAAATGAAAAAATGTACTTAAAAAAAAGGAACA [XGTACX_site8664]”, the “gcPBM binding intensity (ln)” value was 6.61. With “TAAATATTTTTTTAGACACACATATATCTATGATAT [CACACA_site1107]” the “gcPBM binding intensity (ln)” value was 6.23. In the case of “CCCACAAAGGAATATACACACATATATATATATATA [CACACA_site4091]”, the “gcPBM binding intensity (ln)” value was 9.37. “AAAAAAATAATTTGTAGTACGATTCAATGAAAAGGC [XGTACX_site1287]” was tested, and the “gcPBM binding intensity (ln)” value was 6.66. “ATACATATATACATATGTACATATATATATATATAT [XGTACX_site8206]” was tested, and the “gcPBM binding intensity (ln)” value was 9.3. “TTTTTTCTTAAAGACATATATTTATTTGGTAAAACA [XGTACX_negctrl_site243]” was tested, and the “gcPBM binding intensity (ln)” value was 6.04. With “GGATATAACAGACACACACACACATATAAATATATT [CACACA_site7866]” the “gcPBM binding intensity (ln)” value was 6.97. For “ATGCTATATTAAAAACGTACAAACTGTTTAGAAAAA [XGTACX_site8943]”, the “gcPBM binding intensity (ln)” value was 6.1. With “AAAAAATAAATAAATACACACACACTAATATATATA [CACACA_site8488]” the “gcPBM binding intensity (ln)” value was 7.3. In the case of “TATATACAAAAAATATGTACATATATATATATATAT [XGTACX_site3497]”, the “gcPBM binding intensity (ln)” value was 9.17. With “AGAGATATAAGAAAAGCACACACACCCAAAAAAAAA [CACACA_site8917]” the “gcPBM binding intensity (ln)” value was 6.87. ATTATTTATATTATGGTGCATAATTTTGGGTTTCTT was tested, and the “gcPBM binding intensity (ln)” value was 10.4. “TATTTGTTTTTATATAGTACATAAATATATATATAT [XGTACX_site7834]” was tested, and the “gcPBM binding intensity (ln)” value was 8.63. For “AAAATAAATATGAACACACACATTTATGCCTTTAAA [CACACA_site1271]”, the “gcPBM binding intensity (ln)” value was 6.23. In the case of “TATATTATTTATTTTTGTACATATTATGAATGAATA [XGTACX_site3971]”, the “gcPBM binding intensity (ln)” value was 6.74. In the case of “CTTCCTTCTAAATGCACACGGAAAGTATAAATGTAT [CACACA_site2501]”, the “gcPBM binding intensity (ln)” value was 8.78. With “TTACCTTTAAATGGATGTACAGAAATTTAAATTGTT [XGTACX_site7044]” the “gcPBM binding intensity (ln)” value was 6.43. In the case of “TAGAAATATATAAATTGTACATGTTTGTATAATATA [XGTACX_site2097]”, the “gcPBM binding intensity (ln)” value was 6.44. For “CCTCTTAATATGTGCACACTAAATTATAACATAATT [CACACA_site3259]”, the “gcPBM binding intensity (ln)” value was 11.3. In the case of “GGTTAACATAAATATATACACACCAATGATGGCATT [CACACA_site1568]”, the “gcPBM binding intensity (ln)” value was 6.51. With “TGAAAAGTAAAATACACACACATAATCTAATTTATA [CACACA_site7024]” the “gcPBM binding intensity (ln)” value was 6.47. With “TATATTATTTATTAGACACACATTATTAATATATTT [CACACA_site1078]” the “gcPBM binding intensity (ln)” value was 6.49. In the case of “TGGATTTTGTATTAATGTACATATATATATATATAT [XGTACX_site4442]”, the “gcPBM binding intensity (ln)” value was 9.33. With “CAGATAGACTTATATGCATGCATTCACATACCAACA [TGCATGCA_site163]” the “gcPBM binding intensity (ln)” value was 6.92. For “AACAACATTTTGTAATGTACATATTTACTTATATTC [XGTACX_site7251]”, the “gcPBM binding intensity (ln)” value was 6.06. “AAGGATTATTTTAATCGTACATGTGTAAATAATATA [XGTACX_site6177]” was tested, and the “gcPBM binding intensity (ln)” value was 6.84.

From the supplement of paper PMC11417369
